Measured values: the BET-seq Pho4 binding data (Le et al. 2018)
This is one part of the list. The energies were worked out here from pooled read counts, against the library average; single values are noisy.

These sequences were tested against T1, Pho4 (S. cerevisiae) (UniProt P07270) (assay: relative binding free energy (BET-seq); higher = weaker binding). Conditions: reference: library average.
T1 sequence: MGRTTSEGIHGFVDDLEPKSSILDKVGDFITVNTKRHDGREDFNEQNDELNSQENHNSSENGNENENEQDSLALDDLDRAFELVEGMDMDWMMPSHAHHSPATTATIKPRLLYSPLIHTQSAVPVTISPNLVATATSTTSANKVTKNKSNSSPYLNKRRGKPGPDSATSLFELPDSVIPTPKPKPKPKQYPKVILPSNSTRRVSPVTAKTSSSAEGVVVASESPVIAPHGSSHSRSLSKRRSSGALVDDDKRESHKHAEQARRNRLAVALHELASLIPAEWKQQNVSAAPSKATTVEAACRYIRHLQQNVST

Sequence	relative binding free energy
AAGTACACGTGTTAGG	0.09 kcal/mol
AATGGCACGTGCGTTT	-0.21 kcal/mol
ACGTGCACGTGATAGG	0.03 kcal/mol
CACGGCACGTGGGCGG	-0.24 kcal/mol
AGTGCCACGTGATTGT	-0.06 kcal/mol
TGGTTCACGTGCTTTA	0.17 kcal/mol
AGATGCACGTGTTGTG	-0.15 kcal/mol
TGTGACACGTGGGGGA	-0.08 kcal/mol
TTGTACACGTGTTGAA	0.09 kcal/mol
GGTGTCACGTGGGCGC	0 kcal/mol
TGTGTCACGTGTAAAC	0.12 kcal/mol
AGCTTCACGTGGAAGT	0.15 kcal/mol
AAGCTCACGTGGGTTA	0.12 kcal/mol
TTTATCACGTGGCGGG	0.1 kcal/mol
GTAGTCACGTGGGTAA	0.13 kcal/mol
AAGGTCACGTGTGTGT	0.22 kcal/mol
AAGTGCACGTGTTGGA	-0.04 kcal/mol
ATTATCACGTGTGTTC	0.18 kcal/mol
TCTGGCACGTGTTAGA	0.04 kcal/mol
CTAGGCACGTGTAGTT	0.07 kcal/mol
CGGTTCACGTGTCGTA	0.18 kcal/mol
GAAGTCACGTGGTAGG	0.02 kcal/mol
GTGTACACGTGATAGG	0.21 kcal/mol

Sequence	relative binding free energy
GACGTCACGTGGGGTG	-0.07 kcal/mol
TGTTACACGTGATGGA	0.23 kcal/mol
GAGGGCACGTGTAGTA	-0.12 kcal/mol
ATTCACACGTGGGGCT	-0.06 kcal/mol
TTTGGCACGTGCAAGT	-0.17 kcal/mol
AGTTACACGTGTGTGT	0.05 kcal/mol
GTCGGCACGTGGCGGT	-0.14 kcal/mol
GCTCTCACGTGAGGGG	0.39 kcal/mol
GTAATCACGTGATGGT	0.35 kcal/mol
TGAAACACGTGTCGGT	0 kcal/mol
TGAGACACGTGTTGTT	0.01 kcal/mol
GTAGACACGTGAGGTA	0.34 kcal/mol
TGGGACACGTGACGGT	0.17 kcal/mol
ATGAGCACGTGGGCTA	-0.06 kcal/mol
TCTGACACGTGTGGGA	-0.06 kcal/mol
TCAGTCACGTGGTTGA	0.11 kcal/mol
TGAAGCACGTGGGAAG	-0.1 kcal/mol
AAGTTCACGTGTAATT	0.29 kcal/mol
ATTTTCACGTGGGCTC	0.16 kcal/mol
CTCGTCACGTGCGGTG	-0.03 kcal/mol
AGAGCCACGTGGGGGG	-0.21 kcal/mol
AGTGGCACGTGTCGTG	-0.07 kcal/mol
AGGAACACGTGGTGTG	-0.14 kcal/mol

Sequence	relative binding free energy
GATGTCACGTGTAGAT	0.32 kcal/mol
GGCGGCACGTGGAGGG	-0.11 kcal/mol
CATGGCACGTGATTAG	0.01 kcal/mol
TAGTGCACGTGGATAG	0.05 kcal/mol
GTGTTCACGTGGAACT	0.24 kcal/mol
CTCTGCACGTGATGGT	0.13 kcal/mol
GGCGCCACGTGGGCTG	-0.21 kcal/mol
GGTGTCACGTGTTGGG	0.24 kcal/mol
AATAACACGTGGGGGG	-0.15 kcal/mol
CTTGGCACGTGAGGCG	0.06 kcal/mol
TATGACACGTGGGCGT	-0.27 kcal/mol
GGGTTCACGTGGGAAT	0.43 kcal/mol
AGGTTCACGTGAGACG	0.22 kcal/mol
ATTGGCACGTGGCGTA	-0.17 kcal/mol
ATGGTCACGTGTGCTT	0.12 kcal/mol
TTAATCACGTGAGCTT	0.25 kcal/mol
GAGAACACGTGATGGT	0.18 kcal/mol
GGGGACACGTGTTTTA	0.18 kcal/mol
TGTCACACGTGAGGGA	0.18 kcal/mol
CAATTCACGTGATGTG	0.21 kcal/mol
GGTGTCACGTGTCTGA	0.3 kcal/mol
GGAGCCACGTGGGGGA	-0.23 kcal/mol
TTGTGCACGTGGACGT	0.01 kcal/mol

Sequence	relative binding free energy
TAATTCACGTGTTTCG	0.24 kcal/mol
ATGGGCACGTGGATAT	-0.21 kcal/mol
GGTTACACGTGCTGCG	0.15 kcal/mol
TTTGACACGTGAAGGA	0.26 kcal/mol
GTGCACACGTGATTGG	0.16 kcal/mol
GAGGTCACGTGGATGC	0.1 kcal/mol
TGTGGCACGTGCGATC	-0.01 kcal/mol
TTAGGCACGTGGACGA	-0.09 kcal/mol
TAAGACACGTGTATTT	0.06 kcal/mol
CTGTACACGTGTGGAT	0.1 kcal/mol
TTGGACACGTGACGGG	0.17 kcal/mol
TGAGTCACGTGGATAT	0.18 kcal/mol
AGATTCACGTGCTGTT	0.17 kcal/mol
AGGGTCACGTGGGTTA	0.08 kcal/mol
CTGATCACGTGTGGAT	0.33 kcal/mol
GTGAACACGTGTTTGA	0.01 kcal/mol
AAATACACGTGGGGTT	0.1 kcal/mol
GTGCGCACGTGGGTGT	-0.31 kcal/mol
TAGTACACGTGTGTGG	0.14 kcal/mol
GTACTCACGTGAAGGG	0.36 kcal/mol
GGTGTCACGTGAGCAA	0.34 kcal/mol
ACGTGCACGTGTAGTT	-0.02 kcal/mol
GATAACACGTGGTTAT	-0.02 kcal/mol

Sequence	relative binding free energy
TTATTCACGTGATACG	0.18 kcal/mol
GATTGCACGTGGAAAG	0.19 kcal/mol
GTGACCACGTGGATGG	-0.06 kcal/mol
TGGGCCACGTGGTAAG	-0.16 kcal/mol
TATTGCACGTGAGATT	0.17 kcal/mol
GTTTGCACGTGGTTGC	-0.14 kcal/mol
GGAGCCACGTGGTGTA	-0.05 kcal/mol
AGGGCCACGTGGGCTG	-0.35 kcal/mol
AGTATCACGTGTTAAG	0.07 kcal/mol
GCTTTCACGTGGAGTT	0.39 kcal/mol
TGTTTCACGTGTCGCA	0.3 kcal/mol
GGTCGCACGTGATTTA	0.21 kcal/mol
TCACTCACGTGGTGTG	0.06 kcal/mol
GTATGCACGTGTGGTT	0.04 kcal/mol
GTTAACACGTGATAGT	0.13 kcal/mol
TGGTCCACGTGGGGAA	-0.13 kcal/mol
GCAGGCACGTGGAGGT	-0.17 kcal/mol
AGAGTCACGTGTCGGG	0.1 kcal/mol
CGCAACACGTGTGGGG	0.15 kcal/mol
GGTGACACGTGCGGGC	0.05 kcal/mol
GTAGTCACGTGCGCGG	-0.07 kcal/mol
AAATTCACGTGGGGAG	0.15 kcal/mol
CTAGGCACGTGAGGCG	0.1 kcal/mol
